Measurements taken from patent US20240116985A1, “STAPLED PEPTIDES AND METHODS THEREOF” (priority 2020, published 2024).
Part of at least one peptide drawing is inferred or uncertain, most often the ends. For at least one compound, name, drawing or mass did not settle the structure. Starred links: 1 amine or outer side, 2 acyl side, 3 side chain; linkers in the order of their positions; H or OH if unused. Non-standard residues stand in square brackets, D forms with d. Residues, ends and D or L forms follow the SMILES beside them. X1 = C=CCOC(=O)N1CC[C@@](N[*:1])(C(=O)[*:2])C1; X2 = C=CCCCC(CCCC=C)(N[*:1])C(=O)[*:2]; Bta = N[C@@H](Cc1csc2ccccc12)C(=O)O; αAllylPro = C=CC[C@@]1(C(=O)O)CCCN1; R8 = C=CCCCCCC[C@@](C)(N)C(=O)O; S8 = C=CCCCCCC[C@](C)(N)C(=O)O

Each compound was assayed against T1, full-length beta-Catenin (Uniprot ID P35222) (Homo sapiens, UniProt P35222) (assay: Fluorescence polarization IC50 (beta-catenin / 5FAM-TCF4 10-53 competition)). Conditions: Table E2-1; read-out: beta-Catenin FP IC50.
T1 construct: 10 nM full-length beta-Catenin (Uniprot ID P35222)
T1 sequence (P35222 1-781): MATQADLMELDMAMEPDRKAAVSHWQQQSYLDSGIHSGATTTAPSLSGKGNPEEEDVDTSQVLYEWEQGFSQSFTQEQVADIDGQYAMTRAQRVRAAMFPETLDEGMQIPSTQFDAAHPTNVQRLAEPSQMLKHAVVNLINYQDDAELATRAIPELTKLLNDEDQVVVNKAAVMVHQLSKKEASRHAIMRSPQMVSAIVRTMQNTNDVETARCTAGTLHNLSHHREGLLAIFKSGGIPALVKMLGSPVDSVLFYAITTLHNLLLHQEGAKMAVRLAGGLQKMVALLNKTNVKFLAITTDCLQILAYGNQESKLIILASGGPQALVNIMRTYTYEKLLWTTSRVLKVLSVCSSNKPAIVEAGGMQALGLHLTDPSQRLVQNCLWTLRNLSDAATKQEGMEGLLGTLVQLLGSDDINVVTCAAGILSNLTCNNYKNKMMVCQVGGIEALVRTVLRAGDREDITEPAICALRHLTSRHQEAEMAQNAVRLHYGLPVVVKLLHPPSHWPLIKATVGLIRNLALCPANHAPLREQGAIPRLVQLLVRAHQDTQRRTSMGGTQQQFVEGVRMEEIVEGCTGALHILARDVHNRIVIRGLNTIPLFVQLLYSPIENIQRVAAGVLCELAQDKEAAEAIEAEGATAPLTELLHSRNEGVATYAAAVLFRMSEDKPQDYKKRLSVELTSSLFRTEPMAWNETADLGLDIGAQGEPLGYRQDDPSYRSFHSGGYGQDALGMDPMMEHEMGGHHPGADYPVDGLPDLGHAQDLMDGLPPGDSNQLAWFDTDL
Format: binding

SMILES	IC50
CC(=O)N1CCC[C@]12CC=CCCCC1(CCCC=CCCCCCC[C@@](C)(C(=O)N[C@@H](Cc3ccccc3)C(=O)N[C@@H](Cc3c[nH]c4ccccc34)C(=O)N[C@@H](CO)C(N)=O)NC(=O)[C@H](C(C)C)NC(=O)[C@H](Cc3ccccc3)NC(=O)[C@H](C)NC(=O)[C@H](C)NC(=O)[C@H](CC(=O)O)NC(=O)[C@H](CC(=O)O)NC1=O)NC(=O)[C@H](C)NC(=O)[C@H](CC(=O)O)NC2=O (single isomer, unassigned) [I-335, Ac-PL3-Asp-Ala-B5-Asp-Asp-Ala-Ala-Phe-Val-S8-Phe-WCHO-Ser-NH2]	1540 nM
CC(=O)N1CCC[C@]12CC=CCCCC1(CCCC=CCCCCCC[C@@](C)(C(=O)N[C@@H](Cc3ccccc3)C(=O)N[C@@H](Cc3c[nH]c4ccccc34)C(=O)N[C@@H](CO)C(N)=O)NC(=O)[C@H](CO)NC(=O)[C@H](Cc3ccccc3)NC(=O)[C@H](C)NC(=O)[C@H](C)NC(=O)[C@H](CC(=O)O)NC(=O)[C@H](CC(=O)O)NC1=O)NC(=O)[C@H](C)NC(=O)[C@H](CC(=O)O)NC2=O (stereo partly drawn) [I-333, Ac-PL3-Asp-Ala-B5-Asp-Asp-Ala-Ala-Phe-Ser-S8-Phe-WCHO-Ser-NH2]	2760 nM

Same assay, conditions: fluorescence polarization, beta-catenin; read-out: FP EC50

SMILES	IC50
CC(=O)N1CCC[C@]12CC=CCCCC1(CCCC=CCCCCCC[C@@](C)(C(=O)N[C@@H](Cc3ccccc3)C(=O)N[C@@H](Cc3c[nH]c4ccccc34)C(=O)N[C@@H](CO)C(N)=O)NC(=O)[C@H](C(C)C)NC(=O)[C@H](Cc3ccccc3)NC(=O)[C@H](C)NC(=O)[C@H](C)NC(=O)[C@H](CC(=O)O)NC(=O)[C@H](CC(=O)O)NC1=O)NC(=O)[C@H](C)NC(=O)[C@H](CC(=O)O)NC2=O (single isomer, unassigned) [I-334, Ac-PL3-Asp-Ala-B5-Asp-Asp-Ala-Ala-Phe-Val-S8-Phe-WCHO-Ser-NH2]	≥ 5000 nM

Same assay, conditions: fluorescence polarization; read-out: beta-Catenin FP IC50

SMILES	IC50
CC(=O)N1CCC[C@]12CC=CCCCC1(CCCC=CCCCOC(=O)N3CC[C@@](C(=O)N[C@@H](CC4CCCCC4)C(=O)N[C@@H](Cc4csc5ccccc45)C(=O)N[C@@H](CCC(N)=O)C(N)=O)(C3)NC(=O)[C@H](CC(C)C)NC(=O)[C@H](Cc3ccccc3)NC(=O)[C@H](C)NC(=O)[C@H](C)NC(=O)[C@H](CC(=O)O)NC(=O)[C@H](CC(=O)O)NC1=O)NC(=O)[C@H](CC(C)(C)C)NC(=O)[C@H](CC(=O)O)NC2=O (stereo partly drawn) [I-1330, PL3-Asp-Npg-B5-Asp-Asp-Ala-Ala-Phe-Leu-PyrS2-Cha-BztA-Gln-NH2]	104 nM
CC(=O)N1CCC[C@]12CC=CCCCC1(CCCC=CCCCOC(=O)N3CC[C@@](C(=O)N[C@@H](CC4CCCCC4)C(=O)N[C@@H](Cc4csc5ccccc45)C(=O)N[C@@H](CCC(N)=O)C(N)=O)(C3)NC(=O)[C@H](Cc3ccccc3)NC(=O)[C@H](Cc3ccccc3)NC(=O)[C@H](C)NC(=O)[C@H](C)NC(=O)[C@H](CC(=O)O)NC(=O)[C@H](CC(=O)O)NC1=O)NC(=O)[C@H](CC(C)(C)C)NC(=O)[C@H](CC(=O)O)NC2=O (stereo partly drawn) [I-1331, PL3-Asp-Npg-B5-Asp-Asp-Ala-Ala-Phe-Phe-PyrS2-Cha-BztA-Gln-NH2]	75 nM
CC(=O)N1CCC[C@]12CC=CCCCC1(CCCC=CCCCOC(=O)N3CC[C@@](C(=O)N[C@H](Cc4ccccc4)C(=O)N[C@@H](Cc4csc5ccccc45)C(=O)N[C@@H](CCC(N)=O)C(N)=O)(C3)NC(=O)[C@H](CC(N)=O)NC(=O)[C@H](Cc3ccccc3)NC(=O)[C@H](C)NC(=O)[C@H](C)NC(=O)[C@H](CC(=O)O)NC(=O)[C@H](CC(=O)O)NC1=O)NC(=O)[C@H](CC(C)(C)C)NC(=O)[C@H](CC(=O)O)NC2=O (stereo partly drawn) [I-1346, PL3-Asp-Npg-B5-Asp-Asp-Ala-Ala-Phe-Asn-PyrS2-dPhe-BztA-Gln-NH2]	2320 nM
CC(=O)N1CCC[C@]12CC=CCCCC1(CCCC=CCCCOC(=O)N3CC[C@@](C(=O)N[C@H](Cc4ccccc4)C(=O)N[C@@H](Cc4csc5ccccc45)C(=O)N[C@@H](CCC(N)=O)C(N)=O)(C3)NC(=O)[C@H](CC(C)C)NC(=O)[C@H](Cc3ccccc3)NC(=O)[C@H](C)NC(=O)[C@H](C)NC(=O)[C@H](CC(=O)O)NC(=O)[C@H](CC(=O)O)NC1=O)NC(=O)[C@H](CC(C)(C)C)NC(=O)[C@H](CC(=O)O)NC2=O (stereo partly drawn) [I-1347, PL3-Asp-Npg-B5-Asp-Asp-Ala-Ala-Phe-Leu-PyrS2-dPhe-BztA-Gln-NH2]	2370 nM
CC(=O)N1CCC[C@]12CC=CCCCC1(CCCC=CCCCOC(=O)N3CC[C@@](C(=O)N[C@H](Cc4ccccc4)C(=O)N[C@@H](Cc4csc5ccccc45)C(=O)N[C@@H](CCC(N)=O)C(N)=O)(C3)NC(=O)[C@H](Cc3ccccc3)NC(=O)[C@H](Cc3ccccc3)NC(=O)[C@H](C)NC(=O)[C@H](C)NC(=O)[C@H](CC(=O)O)NC(=O)[C@H](CC(=O)O)NC1=O)NC(=O)[C@H](CC(C)(C)C)NC(=O)[C@H](CC(=O)O)NC2=O (stereo partly drawn) [I-1348, PL3-Asp-Npg-B5-Asp-Asp-Ala-Ala-Phe-Phe-PyrS2-dPhe-BztA-Gln-NH2]	1180 nM
CC(=O)N1CCC[C@]12CC=CCCCC1(CCCC=CCCCOC(=O)N3CC[C@@](C(=O)N[C@@H](CCc4ccccc4)C(=O)N[C@@H](Cc4csc5ccccc45)C(=O)N[C@@H](CCC(N)=O)C(N)=O)(C3)NC(=O)[C@H](CC(N)=O)NC(=O)[C@H](Cc3ccccc3)NC(=O)[C@H](C)NC(=O)[C@H](C)NC(=O)[C@H](CC(=O)O)NC(=O)[C@H](CC(=O)O)NC1=O)NC(=O)[C@H](CC(C)(C)C)NC(=O)[C@H](CC(=O)O)NC2=O (stereo partly drawn) [I-1349, PL3-Asp-Npg-B5-Asp-Asp-Ala-Ala-Phe-Asn-PyrS2-hPhe-BztA-Gln-NH2]	161 nM
CC(=O)N1CCC[C@]12CC=CCCCC1(CCCC=CCCCOC(=O)N3CC[C@@](C(=O)N[C@@H](CCc4ccccc4)C(=O)N[C@@H](Cc4csc5ccccc45)C(=O)N[C@@H](CCC(N)=O)C(N)=O)(C3)NC(=O)[C@H](CC(C)C)NC(=O)[C@H](Cc3ccccc3)NC(=O)[C@H](C)NC(=O)[C@H](C)NC(=O)[C@H](CC(=O)O)NC(=O)[C@H](CC(=O)O)NC1=O)NC(=O)[C@H](CC(C)(C)C)NC(=O)[C@H](CC(=O)O)NC2=O (stereo partly drawn) [I-1350, PL3-Asp-Npg-B5-Asp-Asp-Ala-Ala-Phe-Leu-PyrS2-hPhe-BztA-Gln-NH2]	158 nM
CC(=O)N1CCC[C@]12CC=CCCCC1(CCCC=CCCCOC(=O)N3CC[C@@](C(=O)N[C@@H](CCc4ccccc4)C(=O)N[C@@H](Cc4csc5ccccc45)C(=O)N[C@@H](CCC(N)=O)C(N)=O)(C3)NC(=O)[C@H](Cc3ccccc3)NC(=O)[C@H](Cc3ccccc3)NC(=O)[C@H](C)NC(=O)[C@H](C)NC(=O)[C@H](CC(=O)O)NC(=O)[C@H](CC(=O)O)NC1=O)NC(=O)[C@H](CC(C)(C)C)NC(=O)[C@H](CC(=O)O)NC2=O (stereo partly drawn) [I-1351, PL3-Asp-Npg-B5-Asp-Asp-Ala-Ala-Phe-Phe-PyrS2-hPhe-BztA-Gln-NH2]	258 nM
CCCCCCCC(=O)N1CCC[C@]12CC=CCCCC1(CCCC=CCCCOC(=O)N3CC[C@@](C(=O)N[C@@H](Cc4ccccc4)C(=O)N[C@@H](Cc4csc5ccccc45)C(=O)N[C@@H](CCC(N)=O)C(N)=O)(C3)NC(=O)[C@H](CC(C)C)NC(=O)[C@H](Cc3ccccc3)NC(=O)[C@H](C)NC(=O)[C@H](C)NC(=O)[C@H](CC(=O)O)NC(=O)[C@H](CC(=O)O)NC1=O)NC(=O)[C@H](CC(C)(C)C)NC(=O)[C@H](CC(=O)O)NC2=O (stereo partly drawn) [I-1360, PL3-Asp-Npg-B5-Asp-Asp-Ala-Ala-Phe-Leu-PyrS2-Phe-BztA-Gln-NH2]	135 nM
CC(=O)N1CCC[C@]12CC=CCCCC1(CCCC=CCCCOC(=O)N3CC[C@@](C(=O)N[C@@H](Cc4ccccc4)C(=O)N[C@@H](Cc4csc5ccccc45)C(=O)N[C@@H](CCC(N)=O)C(N)=O)(C3)NC(=O)[C@H](CC(C)C)NC(=O)[C@H](Cc3ccc(C#CCN(C)C)cc3)NC(=O)[C@H](C)NC(=O)[C@H](C)NC(=O)[C@H](CC(=O)O)NC(=O)[C@H](CC(=O)O)NC1=O)NC(=O)[C@H](CC(C)(C)C)NC(=O)[C@H](CC(=O)O)NC2=O (stereo partly drawn) [I-1468, Ac-PL3-Asp-Npg-B5-Asp-Asp-Ala-Ala-[CH2NMe2]4SEF-Leu-PyrS2-Phe-BztA-Gln]	233 nM

Same assay, conditions: read-out: FP EC50

SMILES	IC50
C=CCCCCCC[C@](C)(NC(=O)[C@H](CCC(N)=O)NC(=O)[C@H](Cc1ccccc1)NC(=O)[C@H](C)NC(=O)[C@H](C)NC(=O)[C@H](CC(=O)O)NC(=O)[C@H](CC(=O)O)NC(=O)C(CCCC=C)(CCCC=C)NC(=O)[C@H](C)NC(=O)[C@H](CC(=O)O)NC(=O)[C@]1(CC=C)CCCN1C(C)=O)C(=O)N[C@@H](Cc1ccccc1)C(=O)N[C@@H](Cc1csc2ccccc12)C(=O)N[C@@H](CCC(N)=O)C(N)=O [I-578, Ac-PL3-Asp-Ala-B5-Asp-Asp-Ala-Ala-Phe-Gln-S8-Phe-BztA-Gln-NH2] (Ac-[αAllylPro]DA[X2]DDAAFQ[S8]F[Bta]Q-NH2)	≥ 5000 nM
C=CCCCCCC[C@@](C)(NC(=O)[C@H](C)NC(=O)[C@H](CC(=O)O)NC(=O)[C@H](Cc1ccccc1)NC(C)=O)C(=O)N[C@@H](CC(=O)O)C(=O)N[C@@H](CC(=O)O)C(=O)N[C@@H](C)C(=O)N[C@@H](C)C(=O)N[C@@H](Cc1ccccc1)C(=O)N[C@@H](CCC(N)=O)C(=O)N[C@@]1(C(=O)N[C@@H](Cc2ccccc2)C(=O)N[C@@H](Cc2c[nH]c3ccccc23)C(=O)N[C@@H](CCC(N)=O)C(N)=O)CCN(C(=O)OCC=C)C1 [I-579, Ac-Phe-Asp-Ala-R8-Asp-Asp-Ala-Ala-Phe-Gln-PyrS-Phe-Trp-Gln-NH2] (Ac-FDA[R8]DDAAFQ[X1]FWQ-NH2)	≥ 5000 nM
